Assay results as given in the RNAGym collection of RNA variant scans (doi:10.1093/nar/gkz1192).
The source gives no read counts; variants with many changes may rest on few reads.

B1: CPEB3 Ribozyme (parent)
chain: UAACAGGGGGCCACAGCAGAAGCGUUCACGUCGCAGCCCCUGUCAGAUUCUGGUGAAUCUGCGAAUUCUGCUGUAUAUCUC

Variants of: B1
Assay: self-cleavage, relative activity (ratio to wild type); higher = more cleavage; in vitro, sequencing
Procedure, shortened: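 CPEB3 self-cleaving ribozyme mutant libraries were made by rounds of error-prone PCR, barcoded, and transcribed in vitro with T7 RNA polymerase for 5 hours at 37°C. Cleavage occurred during transcription and a 15 min DNase I step before EDTA stop. RNAs were reverse transcribed with template switching and Illumina-sequenced, with DNA sequencing mapping barcodes to variants. Relative activity is the variant's cleaved/total read fraction divided by wild type's (minimum 5 reads), averaged across three batches.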

Variant | self-cleavage
UAACAGGGGGCCACAACAGAAGCGUUCACGUCGCAGCCCCUAUCUGAUUCUGGUGAAUCUGCGAAUUCUGCUGUAUAUCUC [G16A G42A A45U] | 0.21
UAACAGGGGGCCACAUCAGAAGCGAUCACGUCGCGGCCCCUGUCAGAUUCUGGUGAAUCUGCGAAUACUGCUGUAUAUGUC [G16U U25A A35G U67A C79G] | 0.21
UAACAGGGGGCCACACCAGAAGCGUUCACGUCGCGGCCCCUGUCUGAUUCUGGUGGAUCUGCGAUUUCUGCUGUACAUCUC [G16C A35G A45U A56G A65U U76C] | 0.12
UAACAGGGGGCCACACCAGAAGCGUUCACGACGCAGCCCCUGUCCGAUUCUGGUUAAUCUGCGAAUUCUGCUGUUUAUCUC [G16C U31A A45C G55U A75U] | 0.12
UAACAGGGGGCCACACCAGAAGCGCUCACGUCGCAGCCCCUGUCAGAUUCUGGUGAAUCAGCGAAUUCUGCUGUAUAUCUC [G16C U25C U60A] | 0.05
UAACAGGGGGCCACAGAAGAAGCGUUCACGUUGCAGCCCCUGCCAGAUUCUGGUGAUUCUGCGAAUUCUGCCGUAUAUCUC [C17A C32U U43C A57U U72C] | 0.06
UAACAGGGGGCCACACCAGAAGCGUUCAAGUCGCAGCCCCUGUCAGAUUCUGGUGAAUCUGCGAAUUCUGCCGUAUAUCUC [G16C C29A U72C] | 0.34
UAACAGGGGGCCACAACAGAAGCGUGCACGUCGCAGCCCCUGUCAGACUCUGGUGAAUCUGCGAAUUCUGCUGUAUAUCUC [G16A U26G U48C] | 0.13
UAACAGGGGGCCACAACAGAAGCGUUCACGUCGCAGCCCCUGUCAGAUUCUGGUGAAUCUGCGAGUUCCGCUGUAUAUUUC [G16A A65G U69C C79U] | 0.08
UAACAGGGGGCCACAUCAGAAGCGUUCAUGUCGCAGCCCCCGUCAGAUUCUGGUGAAUCUGCGAAUUCUGCUGUAUAUCUC [G16U C29U U41C] | 0.09
UAACAGGGGGCCACAUCAGAAGCGUUCACGUCGCAGCCCCUGUCAGAUUCUGGGGAAUCUGCCAAUUCUGCUGUAUAUCUC [G16U U54G G63C] | 0.21
UAACAGGGGGCCACAGGUGAAGCGUUCACGUCGCAGCCCCUGUCAGAUUCUGGUGGAUCUGCGAAUUCUGCUGUAUAUCUC [C17G A18U A56G] | 0.2
UAACAGGGGGCCACACCAGAAGCGUUCGCGUCGCAGCCCCUGUCUGAUUCUGGUGAAUCUGCGAAUUCUGCUGUAUAUCUC [G16C A28G A45U] | 0.27
UAACAGGGGGCCACAACAGAAGCGCUCACGUCGCAGCCCCUGUCAGAUUCUGGUGAAUCUGCGAGUUCUGCUGUAAAUCUC [G16A U25C A65G U76A] | 0.04
UAACAGGGGGCCACAGAAGAAGCGUUCACGUCACAGCCCCUGUCAGAUUCUGGUGAAUCUGCGAAUUCUGCCGUAUAUCUC [C17A G33A U72C] | 0.17
UAACAGGGGGCCACAUCGGAAGCGUUCACGUCGCAGCCCCUGUCAGUUUCUGGAGAAUCUGCUAAUUCUGCUGUAUAUCUC [G16U A18G A47U U54A G63U] | 0.1
UAACAGGGGGCCACACCAGAAGCGUUCACGUCGCAGCCCCUGUCAGAUUCUGGUGAAUCUGCGGAUACUGCUGUAUAUCUC [G16C A64G U67A] | 0.43

Variant | self-cleavage
UAACAGGGGGCCACAGAAGAAGCGUUCACGUCGCAGCCCCUGCCAGAUUCUGGUGAAUCUGCGAAUUCUGCUGUAUACCUU [C17A U43C U78C C81U] | 0.21
UAACAGGGGGCCACACCAGGAGCGUUCACGUCGCAGCCCCUGUCAGAUACUGGUGAAUCUGCGAAUUCUGCUGUAUAUCUC [G16C A20G U49A] | 0.08
UAACAGGGGGCCACAGAAGGAGCGUUCACGACGCAGCCCCUGUCAGAUUCUGGUGUAUCUGCGAAUUCUGCUGUAUGUCUC [C17A A20G U31A A56U A77G] | 0.05
UAACAGGGGGCCACAGAAGAAGCGUUCACGUCGCAGCCCCUGUCUGAUUCUGUUGAGUCGGCGAAUACUGCUGUAUAUCUC [C17A A45U G53U A57G U60G U67A] | 0.03
UAACAGGGGGCCACACCAUAAGCGUUCACGUCGCAGCCCCAGUCAGAUUCUGGCGAAUCUGCGAAUUCUGCUGUAUGUCUC [G16C G19U U41A U54C A77G] | 0.15
UAACAGGGGGCCACACCAGAAGCGUUCACGCCGCAGCCCCUGUCAGAUUCUGGUGAAUCUGCGAAUUCUGCUGUGUAUCUC [G16C U31C A75G] | 0.19
UAACAGGGGGCCACAACAGACGCGUUCACGUCGCAGCCCCUGUCAGAUUCUGGAGACUCUGCGGAUUCUGCUGUAUAUCUC [G16A A21C U54A A57C A64G] | 0.03
UAACAGGGGGCCACAUCAGAAGCGUUCACGUCGCAGCCCCUGUCAGAUUCUAGUGAAUCUGCGAAUUCUGCUGUGUAUCUC [G16U G52A A75G] | 0.8
UAACAGGGGGCCACAUCAGAAGCGUUCACGUCGCAGCCCCUGUCGGAUUCUGGAGAAUCUGCGAAUUCCGCUGAAUAUCUC [G16U A45G U54A U69C U74A] | 0.07
UAACAGGGGGCCACAACAGUAGCGUUCACGUCGCAGCCCCUUUCAGAUUCUGGCGAAUCUGCGAAUUCUGCUGUAUAUCUC [G16A A20U G42U U54C] | 0.14
UAACAGGGGGCCACAUCAGAGGCGUUCACGUCGCAGUACCUGUCAGAUCCUGGUGAAUCUGCGAAUUCUGCUGUAUAUCUC [G16U A21G C37U C38A U49C] | 0.1
UAACAGGGGGCCACAGAAGAAGCGUACACGUCGCAGCCCCUGUCAGAAUCUGGUGAAUCAGCGAACUCUGCUGUAUAUCUC [C17A U26A U48A U60A U66C] | 0.15
UAACAGGGGGCCACAGAAGCAGCGUUCACGUCGCAGCCCCUGCCAGAUUCUGGUGAAUCUGCGAAUUCUGCUGUAUAUCUC [C17A A20C U43C] | 0.05
UAACAGGGGGCCACACCAGAGGCGUUCUCGUCGCAGCCCCUUUCAGAUUCUGGAGAAUCUACGAAUUCUGCUGUAUAUCUC [G16C A21G A28U G42U U54A G61A] | 0.13
UAACAGGGGGCCACACCAGAAGCGUUCACGUCGCAGCCCCUGUCGGAUUCUGGUGGAUCUGCGAAUUCUGCUGUUUAACUC [G16C A45G A56G A75U U78A] | 0.2
UAACAGGGGGCCACAUCAGAAGCGUUCGCGUCGCGGCCCCCGUCAGAUUCUGGUGAAUCUGCGAAUUCUGCUGUAUAUCUC [G16U A28G A35G U41C] | 0.33
UAACAGGGGGCCACAUCGGAAGCGUUCACGUCGCAGCCCCUGUCGGAUUCUGGUGAAUCUGCGAAUUCUGCUGUAUGUCUC [G16U A18G A45G A77G] | 0.23
